Assay results as given in the supplement of paper PMC6135742.
Values joined by “and” are separate entries in the source; they are usually repeats but may differ in a detail not shown here. Equal values may be shown once. Where a name gives a salt, the structure may show the parent alone. ± gives the standard deviation of the averaged measurements. Over roughly 2,600 compounds, “MBP+ mature oligodendrocyte number relative to DMSO vehicle control” has its median near -0.34; the highest 2% begin near 13. The list shows a part of the results.

System: jimpy (Plp1 jimpy) mouse iPSC-derived oligodendrocyte progenitor cells
Experiment: MBP+ mature oligodendrocyte number relative to DMSO vehicle control (SDs above negative control mean); higher = more surviving jimpy oligodendrocytes (rescue)
Settings: 10 µM; 3 days
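Note: 10 µM single dose with 3-day oligodendrocyte differentiation.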

Compound | MBP+ mature oligodendrocyte number
CCN(CC)Cc1ccc(C(=O)N(CCc2ccccc2OC)[C@@H]2CCNC2)cc1 | -3.89
CCOC(=O)C1=C(COCCN)NC(C)=C(C(=O)OC)C1c1ccccc1Cl (stereo not drawn) [Amlodipine] | < -5.15
Oc1ccc(/C=C/c2cc(O)cc(O)c2)cc1 [Resveratrol] | 2.99 ± 2.1
Cc1cc(/C=C/C#N)cc(C)c1Nc1ccnc(Nc2ccc(C#N)cc2)n1 [Rilpivirine] | -6.18
Cc1c(N(C)C)c(=O)n(-c2ccccc2)n1C [Amidopyrine] | 0.501
CCOc1cc2ncc(C#N)c(Nc3ccc(F)c(Cl)c3)c2cc1NC(=O)/C=C/CN(C)C [Pelitinib (EKB-569)] | < -6.7
CCCc1c(-c2ccc(O)cc2)nn(-c2ccc(O)cc2)c1-c1ccc(O)cc1 [1,3,5-tris(4-hydroxyphenyl)-4-propyl-1H-pyrazole] | 4.9
C=C1C(=O)[C@]23[C@H](O)[C@H]1CC[C@H]2[C@@]12CO[C@]3(O)[C@@H](O)[C@@H]1C(C)(C)CC[C@@H]2O [Oridonin] | < -4.81
OC(CNCC(O)C1CCc2cc(F)ccc2O1)C1CCc2cc(F)ccc2O1 (stereo not drawn) [Nebivolol] | -5.06
CC[C@H](C)[C@H](N)C1=N[C@H](C(=O)N[C@@H](CC(C)C)C(=O)N[C@H](CCC(=O)O)C(=O)N[C@H](C(=O)N[C@H]2CCCCNC(=O)[C@H](CC(N)=O)NC(=O)[C@@H](CC(=O)O)NC(=O)[C@H](Cc3cnc[nH]3)NC(=O)[C@@H](Cc3ccccc3)NC(=O)[C@H]([C@@H](C)CC)NC(=O)[C@@H](CCCN)NC2=O)[C@@H](C)CC)CS1 [Bacitracin] | 0.491
O=C(CCc1ccc(O)cc1)c1c(O)cc(O)cc1O [Phloretin] | 0.578 ± 1.2
CNCc1ccc(-c2cc(-c3nc(-c4ccc(S(=O)(=O)C(C)C)cc4)cnc3N)on2)cc1 | < -6.35
CN1CCN(CCCN2c3ccccc3Sc3ccc(C(F)(F)F)cc32)CC1 [Trifluoperazine 2HCl] | < -6.01
CN1CCN(CCCN2c3ccccc3Sc3ccc(C(F)(F)F)cc32)CC1 [Trifluoperazine dihydrochloride] | -3.67
CC(S)C(=O)NCC(=O)O (stereo not drawn) [Tiopronin] | -0.557
CNC[C@H](O)c1ccc(O)c(O)c1 [Epinephrine Bitartrate] | 1.23
CNC[C@H](O)c1ccc(O)c(O)c1 (racemic) [(±)-Epinephrine hydrochloride] | 0.0316
CNC[C@H](O)c1ccc(O)c(O)c1 [(-)-Epinephrine bitartrate] | -0.753
CNC[C@H](O)c1ccc(O)c(O)c1 [Epinephrine HCl] | 1.29
C=CC(=O)Nc1cc2c(Nc3ccc(F)c(Cl)c3)ncnc2cc1OCCCN1CCOCC1 [Canertinib (CI-1033)] | -6.61
O=C(NCc1ccccc1)c1csc(Nc2ccncn2)n1 [Thiazovivin] | -3.47
O=C(Nc1ccccc1C(=O)NC1CCCCNC1=O)c1cc2ccccc2s1 (stereo not drawn) | 0.61
CCc1cc(Nc2nccc(-c3c(-c4ccc(OC)c(C(=O)Nc5c(F)cccc5F)c4)nc4ccccn34)n2)c(OC)cc1N1CCC(N2CCN(S(C)(=O)=O)CC2)CC1 | 9.27
Nc1ccn([C@H]2CC[C@@H](CO)O2)c(=O)n1 [Zalcitabine] | -0.107

Compound | MBP+ mature oligodendrocyte number
Nc1ccn([C@H]2CC[C@@H](CO)O2)c(=O)n1 [2',3'-dideoxycytidine] | -1.22
CC(=O)c1ccc2c(c1)N(CCCN(C)C)c1ccccc1S2 [Acepromazine maleate] | -3.39
COc1cccc(-c2cc(=O)c3ccccc3o2)c1N | -1.46 and -3.12
CNC(=O)c1cccc(-c2ccc3c(N4CCOC[C@@H]4C)nc(N4CCOC[C@@H]4C)nc3n2)c1 | < -6.01
C=CCNC(N)=S [Allylthiourea] | 8.09
CN(C)CCOC(C)(c1ccccc1)c1ccccn1 (stereo not drawn) [Doxylamine succinate] | 0.0839
CN(C)CCOC(C)(c1ccccc1)c1ccccn1 (stereo not drawn) [Doxylamine Succinate] | -1.2
C[C@@H](O)[C@H]1C(=O)N2C(C(=O)O)=C(S[C@@H]3CN[C@H](CNS(N)(=O)=O)C3)[C@H](C)[C@H]12 [Doripenem Hydrate] | -2.33
COc1cc2nccc(Oc3ccc(NC(=O)Nc4cc(C)on4)c(Cl)c3)c2cc1OC [Tivozanib (AV-951)] | -6.44
CC(C)(C#N)c1cc(Cn2cncn2)cc(C(C)(C)C#N)c1 [Anastrozole] | 0.458
C(=C\c1ccccc1)/CN1CCN(C(c2ccccc2)c2ccccc2)CC1 [Cinnarizine] | -1.1
C[C@]1(O)C[C@@H](c2nc(-c3ccc4ccc(-c5ccccc5)nc4c3)c3c(N)nccn32)C1 [OSI-906 (Linsitinib)] | < -6.7
C[C@@H]1CCO[C@H]2Cn3cc(C(=O)NCc4ccc(F)cc4F)c(=O)c(O)c3C(=O)N12 | 2.56
O=C(C1CCCCC1)N1CC(=O)N2CCc3ccccc3C2C1 (stereo not drawn) [Praziquantel] | 9.39 ± 15
Cc1nc(C#Cc2cccnc2)cs1 [MTEP hydrochloride] | -1.46
CNC(=O)c1cc(Oc2ccc(NC(=O)Nc3cc(C(C)(C)C)nn3-c3ccc4ncccc4c3)c(F)c2)ccn1 [DCC-2036 (Rebastinib)] | < -6.01
OC[C@H]1O[C@H](O[C@]2(CCl)O[C@H](CCl)[C@@H](O)[C@@H]2O)[C@H](O)[C@@H](O)[C@H]1Cl [Sucralose] | -0.269
O=C(O)c1cc(=O)cc(C(=O)O)[nH]1 [Chelidamic acid] | -0.158
CC(C)C[C@H](NC(=O)[C@@H](NC(=O)c1cccc(-c2ccccc2)n1)[C@@H](C)O)B(O)O | < -6.7
CN1CCC(=C2c3ccccc3CCc3cccnc32)CC1 [Azatadine dimaleate] | -2.75
Nc1nc2ccc(OC(F)(F)F)cc2s1 [Riluzole] | 0.493 ± 0.72
COc1ccc2c(c1)c(CC(=O)O)c(C)n2C(=O)c1ccc(Cl)cc1 [Indomethacin] | 0.3 ± 0.45
CNC(=O)c1cc(Oc2ccc(NC(=O)Nc3ccc(Cl)c(C(F)(F)F)c3)c(F)c2)ccn1 [Regorafenib (BAY 73-4506)] | 1.51
CC(C)C[C@H](NC(=O)[C@H](O)[C@H](N)Cc1ccccc1)C(=O)O [Epibestatin hydrochloride] | -1.54
